From the supplement of paper PMC8728848
The other results are listed elsewhere or left out.

What was measured:
Assay in all cases: glycan array binding signal (z-score within array); higher = stronger binding
Conditions in all cases: glycan notation: IUPAC condensed, linker removed
[1] = target: Glc(a1-2)Glc
Procedure, shortened: (§1)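 The binding signal is a Z-score computed within each array and averaged over linkers. Arrays of the same protein sequence at different concentrations or buffers were also averaged together. Data originate from 3228 arrays in the Consortium for Functional Glycomics database, kept only where the protein sequence was available.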

[2] = target: Glc(a1-2)Glc(a1-2)Glc
Procedure, shortened: as §1

[3] = target: Glc(a1-2)Glc(a1-2)Glc(a1-2)Glc
Procedure, shortened: as §1

[4] = target: Glc(a1-2)Glc(a1-2)Glc(a1-2)Glc(a1-2)Glc
Procedure, shortened: as §1

[5] = target: Glc(a1-2)Glc(a1-2)Glc(a1-2)Glc(a1-2)Glc(a1-2)Glc
Procedure, shortened: as §1

[6] = target: Glc(a1-2)Glc(a1-2)Glc(a1-2)Glc(a1-2)Glc(a1-2)Glc(a1-2)Glc
Procedure, shortened: as §1

[7] = target: Glc(a1-2)Glc(a1-2)Glc(a1-2)Glc(a1-2)Glc(a1-2)Glc(a1-2)Glc(a1-2)Glc
Procedure, shortened: as §1

[8] = target: Glc(a1-2)Glc(a1-2)Glc(a1-2)Glc(a1-2)Glc(a1-2)Glc(a1-2)Glc(a1-2)Glc(a1-2)Glc
Procedure, shortened: as §1

[9] = target: Glc(a1-3)Glc
Procedure, shortened: as §1

[10] = target: Glc(a1-3)Glc(a1-3)Glc
Procedure, shortened: as §1

[11] = target: Glc(a1-3)Glc(a1-3)Glc(a1-3)Glc
Procedure, shortened: as §1

[12] = target: Glc(a1-3)Glc(a1-3)Glc(a1-3)Glc(a1-3)Glc
Procedure, shortened: as §1

[13] = target: Glc(a1-3)Glc(a1-3)Glc(a1-3)Glc(a1-3)Glc(a1-3)Glc
Procedure, shortened: as §1

[14] = target: Glc(a1-3)Glc(a1-3)Glc(a1-3)Glc(a1-3)Glc(a1-3)Glc(a1-3)Glc
Procedure, shortened: as §1

[15] = target: Glc(a1-3)Glc(a1-3)Glc(a1-3)Glc(a1-3)Glc(a1-3)Glc(a1-3)Glc(a1-3)Glc
Procedure, shortened: as §1

[16] = target: Glc(a1-3)Glc(a1-3)Glc(a1-3)Glc(a1-3)Glc(a1-3)Glc(a1-3)Glc(a1-3)Glc(a1-3)Glc
Procedure, shortened: as §1

[17] = target: Glc(a1-3)Glc(a1-3)Glc(a1-3)Glc(a1-3)Glc(a1-3)Glc(a1-3)Glc(a1-3)Glc(a1-3)Glc(a1-3)Glc
Procedure, shortened: as §1

[18] = target: Glc(a1-3)Glc(a1-3)Glc(a1-3)Glc(a1-3)Glc(a1-3)Glc(a1-3)Glc(a1-3)Glc(a1-3)Glc(a1-3)Glc(a1-3)Glc
Procedure, shortened: as §1

[19] = target: Glc(a1-3)Glc(a1-3)Glc(a1-3)Glc(a1-3)Glc(a1-3)Glc(a1-3)Glc(a1-3)Glc(a1-3)Glc(a1-3)Glc(a1-3)Glc(a1-3)Glc
Procedure, shortened: as §1

[20] = target: Glc(a1-3)Glc(a1-3)Glc(a1-3)Glc(a1-3)Glc(a1-3)Glc(a1-3)Glc(a1-3)Glc(a1-3)Glc(a1-3)Glc(a1-3)Glc(a1-3)Glc(a1-3)Glc
Procedure, shortened: as §1

[21] = target: Glc(a1-4)Glc
Procedure, shortened: as §1

[22] = target: Glc(a1-4)Glc(a1-4)Glc
Procedure, shortened: as §1

[23] = target: Glc(a1-4)Glc(a1-4)Glc(a1-4)Glc
Procedure, shortened: as §1

[24] = target: Glc(a1-4)Glc(a1-4)Glc(a1-4)Glc(a1-4)Glc
Procedure, shortened: as §1

[25] = target: Glc(a1-4)Glc(a1-4)Glc(a1-4)Glc(a1-4)Glc(a1-4)Glc
Procedure, shortened: as §1

[26] = target: Glc(a1-4)Glc(a1-4)Glc(a1-4)Glc(a1-4)Glc(a1-4)Glc(a1-4)Glc
Procedure, shortened: as §1

[27] = target: Glc(a1-4)Glc(a1-4)Glc(a1-4)Glc(a1-4)Glc(a1-4)Glc(a1-4)Glc(a1-4)Glc
Procedure, shortened: as §1

[28] = target: Glc(a1-4)Glc(a1-4)Glc(a1-4)Glc(a1-4)Glc(a1-4)Glc(a1-4)Glc(a1-4)Glc(a1-4)Glc
Procedure, shortened: as §1

[29] = target: Glc(a1-4)Glc(a1-4)Glc(a1-4)Glc(a1-4)Glc(a1-4)Glc(a1-4)Glc(a1-4)Glc(a1-4)Glc(a1-4)Glc
Procedure, shortened: as §1

[30] = target: Glc(a1-4)Glc(a1-4)Glc(a1-4)Glc(a1-4)Glc(a1-4)Glc(a1-4)Glc(a1-4)Glc(a1-4)Glc(a1-4)Glc(a1-4)Glc
Procedure, shortened: as §1

[31] = target: Glc(a1-4)Glc(a1-4)Glc(a1-4)Glc(a1-4)Glc(a1-4)Glc(a1-4)Glc(a1-4)Glc(a1-4)Glc(a1-4)Glc(a1-4)Glc(a1-4)Glc
Procedure, shortened: as §1

[32] = target: Glc(a1-4)Glc(a1-4)Glc(a1-4)Glc(a1-4)Glc(a1-4)Glc(a1-4)Glc(a1-4)Glc(a1-4)Glc(a1-4)Glc(a1-4)Glc(a1-4)Glc(a1-4)Glc
Procedure, shortened: as §1

[33] = target: Glc(a1-4)Glc(a1-6)Glc
Procedure, shortened: as §1

[34] = target: Glc(a1-6)Glc
Procedure, shortened: as §1

[35] = target: Glc(a1-6)Glc(a1-4)Glc
Procedure, shortened: as §1

[36] = target: Glc(a1-6)Glc(a1-4)Glc(a1-4)Glc
Procedure, shortened: as §1

[37] = target: Glc(a1-6)Glc(a1-4)Glc(a1-4)Glc(a1-6)Glc(a1-4)Glc(a1-4)Glc
Procedure, shortened: as §1

[38] = target: Glc(a1-6)Glc(a1-6)Glc
Procedure, shortened: as §1

[39] = target: Glc(a1-6)Glc(a1-6)Glc(a1-6)Glc
Procedure, shortened: as §1

[40] = target: Glc(a1-6)Glc(a1-6)Glc(a1-6)Glc(a1-6)Glc
Procedure, shortened: as §1

[41] = target: Glc(a1-6)Glc(a1-6)Glc(a1-6)Glc(a1-6)Glc(a1-6)Glc
Procedure, shortened: as §1

[42] = target: Glc(a1-6)Glc(a1-6)Glc(a1-6)Glc(a1-6)Glc(a1-6)Glc(a1-6)Glc
Procedure, shortened: as §1

[43] = target: Glc(a1-6)Glc(a1-6)Glc(a1-6)Glc(a1-6)Glc(a1-6)Glc(a1-6)Glc(a1-6)Glc
Procedure, shortened: as §1

[44] = target: Glc(a1-6)Glc(a1-6)Glc(a1-6)Glc(a1-6)Glc(a1-6)Glc(a1-6)Glc(a1-6)Glc(a1-6)Glc
Procedure, shortened: as §1

[45] = target: Glc(a1-6)Glc(a1-6)Glc(a1-6)Glc(a1-6)Glc(a1-6)Glc(a1-6)Glc(a1-6)Glc(a1-6)Glc(a1-6)Glc
Procedure, shortened: as §1

Measured: glycan array binding signal (z-score)

B1: Dectin-1 (Homo sapiens), Q9BXN2 (protein)
chain: TMAIWRSNSGSNTLENGYFLSRNKENHSQPTQSSLEDSVTPTKAVKTTGVLSSPCPPNWIIYEKSCYLFSMSLNSWDGSKRQCWQLGSNLLKIDSSNELGFIVKQVSSQPDNSFWIGLSRPQTEVPWLWEDGSTFSSNLFQIRTTATQENPSPNCVWIHVSVIYDQLCSVPSYSICEKKFSM
0.029: [22]
-0.044: [28]
-0.122: [30]
-0.118: [18]
-0.04: [17]
-0.046: [19]
-0.042: [20] | [27]
0.026: [31]
-0.145: all other assays above
